Source: PubChem BioAssay AID686978 (National Center for Advancing Translational Sciences (NCATS), 2013)
Where “and” joins values, the source holds several entries; their conditions need not be identical. Equal entries are not always repeated. Out of some 420,000 compounds screened, about 64,000 (15%) were called active. Inconclusive results, whose numbers are uncertain, are shown with a selection of clear calls. Calls come from the whole dose curve; as a rule, active = well fitted inhibition curve with a large enough effect; inconclusive = small, poorly fitted or top-dose-only effect; inactive = flat fitted curve, though single readings scatter. Where the call is inconclusive, the potency comes from a doubtful curve fit.
% is set by controls: 0 for no effect and ±100 for the full control effect; potency is the fitted concentration of half-maximal effect; tags give direction and shape of the fitted curve.

Assay: qHTS for Inhibitors of human tyrosyl-DNA phosphodiesterase 1 (TDP1): qHTS in cells in absence of CPT; note: nearly all actives have a fitted effect of over 55% in size
Conditions: DT40 Tdp1-/- hTDP1 cells, no CPT, ATP luminescence, 48 h; activity change, negative = growth inhibition: at 46.2 µM (top of the series) unless noted
How it was run: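 No-CPT arm: Tdp1-/-;hTDP1 DT40 cells (400/well) plus compounds, incubated ≥48 hr at 37 °C. Readout CellTiter-Glo luminescence.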
With O=C(CCNC(=O)C1CCN(S(=O)(=O)c2ccccc2)CC1)NCc1ccc(Cl)cc1Cl the Potency was inconclusive: 29.1 µM [inhibitor, single point].
With Clc1ccc2c(N3CCOCC3)ccnc2c1 the Potency was inconclusive: 14.6 µM [inhibitor, single point].
In the case of Cc1ccc(C(C[N+](=O)[O-])n2nc(C)cc2C)cc1 (stereo not drawn), the Potency is reported as active: 2.59 µM.
With CCOC(=O)c1ccc(CNC(=O)c2cc(COc3ccccc3SC)on2)o1 the Potency was inconclusive: 23.1 µM [inhibitor, single point].
In the case of O=C(C[C@@H]1C/C=C\CC[C@H](Cc2ccc(F)cc2)C(=O)OC[C@@H](Cc2ccccc2)NC1=O)NCCO, the Potency is reported as inconclusive: 18.4 µM [inhibitor, single point].
With C[C@H]1CN([C@@H](C)CO)C(=O)c2cccc(NC(=O)c3ccncc3)c2O[C@H]1CN(C)C(=O)Nc1ccccc1 the Potency was inconclusive: 29.1 µM [inhibitor, single point].
With COc1c(C)cc(Br)cc1C(=O)Nc1ccc(Cc2ccncc2)cc1 the Potency was inconclusive: 29.1 µM [inhibitor, single point].
In the case of Cc1c(NS(=O)(=O)c2cc(C(=O)NCCN(C)C)ccc2Cl)c(=O)n(-c2ccccc2)n1C, the “activity change, negative = growth inhibition” value is reported as inactive: 0.201%.
In the case of CCOc1cc(/C=C(/C#N)c2nc3ccccc3[nH]2)ccc1OCc1ccc(C(=O)O)o1, the activity change, negative = growth inhibition is reported as inconclusive: -30.4% [inhibitor].
In the case of O=C(c1ccc(Cl)c(S(=O)(=O)N2CCCCC2)c1)N1CCN(Cc2ccccc2)CC1, the Potency is reported as inconclusive: 25.9 µM [inhibitor, single point].
For COc1cccc(CN(C)CC(=O)Nc2cccc(S(N)(=O)=O)c2)c1OC, the Potency was inconclusive: 29.1 µM [inhibitor, single point].
For Cc1ccc2ncc3c(-c4ccccc4)nn(CC(=O)NC4CCCCC4)c3c2c1, the “activity change, negative = growth inhibition” value was inactive: -4.95%.
For O=S(=O)(c1ccc(Cl)c(F)c1)N1CCC(c2nc(-c3ccncc3)no2)CC1, the Potency was inconclusive: 18.4 µM [inhibitor, single point].
For O=C(CC1NCCNC1=O)Nc1cccc(F)c1 (stereo not drawn), the “activity change, negative = growth inhibition” value was inactive: -7.86%.
In the case of Cc1ccc(C(=O)c2sc(Nc3ccccc3)c(C#N)c2N)cc1, the Potency is reported as inconclusive: 18.4 µM [inhibitor, single point].
With CC(C)(C)C1=CC(=O)C(=O)C(C(C)(C)C)=C1 the Potency was active: 1.3 µM.
With CCOC(=O)C1CCN(S(=O)(=O)c2cccc(C(=O)Nc3ccccc3)c2)CC1 the “activity change, negative = growth inhibition” value was inactive: -9.46%.
In the case of COc1ccc(Cl)c2sc(N(CCN(C)C)C(=O)C3=COCCO3)nc12, the Potency is reported as inconclusive: 20.6 µM [inhibitor, partial curve, poor fit].
With Cc1cc(NCC(c2ccccc2)c2ccccc2)n2ncnc2n1 the Potency was inconclusive: 29.1 µM [inhibitor, single point].
In the case of CC[C@@H]1C(c2ccccc2)=NN(c2ccccc2)[C@H]1C(=O)N1CCOC1=O, the “activity change, negative = growth inhibition” value is reported as inactive: 0.165%.
For CSc1ccc(S(=O)(=O)N2CCC(C(=O)N3CCc4ccccc4C3)CC2)cc1, the Potency was inconclusive: 16.4 µM [inhibitor, single point].
In the case of COc1ccccc1N1CCN(CCCNC(=O)Cn2ncc3c([nH]c4ccccc43)c2=O)CC1, the Potency is reported as active: 20.6 µM.
In the case of CCc1ccc(-c2nc(SCC(=O)NCCOC)c(-c3ccc(C)cc3)[nH]2)cc1, the Potency is reported as inconclusive: 20.6 µM [inhibitor, single point].
With CCCCOc1ccc(C(=O)N2CCN(c3ccc(N4CCOCC4)nn3)CC2)cc1 the Potency was inconclusive: 29.1 µM [inhibitor, single point].
For CCc1ccc(CNc2nc3nc(C)c(Cc4ccccc4)c(=O)n3[nH]2)cc1, the activity change, negative = growth inhibition was inconclusive: -30.7% [inhibitor].
In the case of CCc1ccc(CN2CCc3nc(Nc4ccc5c(c4)OCCO5)ncc3C2)cc1, the Potency is reported as active: 23.1 µM.
In the case of CC(C)(C)c1cc(=O)[nH]c(SCc2ccccc2Cl)n1, the Potency is reported as inconclusive: 18.4 µM [inhibitor, single point].
With Cc1cccc([C@@H]2[C@@H]3C(=O)N(Cc4ccccc4)C(=O)[C@@H]3[C@]3(C)C(=O)N(c4ccc(Br)cc4)C(=O)N23)c1 the Potency was inconclusive: 18.4 µM [inhibitor, single point].
For COc1ccc(NC(=O)N2CCN(c3nc(-c4cccc(OC)c4)cs3)CC2)cc1, the Potency was active: 18.4 µM.
In the case of CC(C)=CCc1c(O)cc(O)c2c1OC(c1ccc(O)cc1)CC2=O (stereo not drawn), the Potency is reported as inconclusive: 29.1 µM [inhibitor, single point].
For COc1ccc(CCNC(=O)Nc2cc(F)c(F)cc2Cl)cc1OC, the Potency was active: 8.2 µM.
With COc1ccccc1CNC(=O)C(=O)NCC(c1ccc2c(c1)OCO2)N1CCOCC1 (stereo not drawn) the Potency was inconclusive: 18.4 µM [inhibitor, single point].
In the case of CCN(C(=O)c1cn(C)c(=O)c2cc(OC)c(OC)cc12)c1cc(C)ccc1C, the Potency is reported as inconclusive: 18.4 µM [inhibitor, single point].
In the case of COc1ccc(CCNc2oc(COc3ccc(Cl)cc3)nc2C#N)cc1OC, the Potency is reported as active: 11.6 µM.
In the case of O=C(NCc1ccccc1)C1=C[C@@H](c2ccccc2)C[C@@H](OCCCCO)O1, the Potency is reported as inconclusive: 16.4 µM [inhibitor, single point].
In the case of CCc1ccc2nc(N3CCN(C(=O)c4ccco4)CC3)sc2c1, the Potency is reported as inconclusive: 13 µM [inhibitor, partial curve].
In the case of O=C(Nc1ncc2c(n1)-c1ccccc1OC2)c1cccc([N+](=O)[O-])c1, the Potency is reported as inconclusive: 29.1 µM [inhibitor, single point].
For COc1cccc(-n2nnc3c(=O)n(CC(=O)N4CCCc5ccccc54)cnc32)c1, the Potency was inconclusive: 14.1 µM [inhibitor, single point].
In the case of COc1ccc(Nc2nnc(-c3ccc(C)c(S(N)(=O)=O)c3)c3ccccc23)cc1, the Potency is reported as active: 18.4 µM.
With CC(C)c1ccc(/C=N/NC(=O)c2ccc(-n3cnnn3)cc2)cc1 the Potency was active: 11.6 µM.
With CCOc1cc(C(N)=O)cc(Cl)c1OCC the Potency was active: 23.1 µM.
For CCc1nc2c(OCc3ccc(OC(F)F)cc3)cccn2c1N(C)C(=O)c1ccco1, the Potency was inconclusive: 25.9 µM [inhibitor, single point].
For CC(=O)c1cccc(NC(=O)C2=CC(c3ccco3)=NS(=O)(=O)N2C)c1, the Potency was “inactive and inconclusive: 29.1 µM [inhibitor, single point]”.
In the case of Cc1cc(N2CC(C(=O)Nc3nccs3)CC2=O)ccc1C(C)C (stereo not drawn), the “activity change, negative = growth inhibition” value is reported as inactive: -20.1%.
In the case of COc1ccc(C2=Nn3c(nnc3-c3ccco3)SC2)cc1, the Potency is reported as inconclusive: 25.9 µM [inhibitor, single point].
For CC(C)O/C(=N/S(=O)(=O)c1ccc(Cl)cc1)c1ccccc1, the “activity change, negative = growth inhibition” value was inactive: -7.93%.
In the case of O=C(COC(=O)c1ccc(F)cc1Cl)NC(=O)NC1CCCC1, the “activity change, negative = growth inhibition” value is reported as inactive: -29.1%.
With Cc1cc(C)n(-c2ccc(C(=O)O)cc2[N+](=O)[O-])n1 the “activity change, negative = growth inhibition” value was inactive: -0.656%.
With CCCCN(CC)C(=O)c1cc2c(=O)[nH]c3ccc(C)cc3c2s1 the Potency was inconclusive: 20.6 µM [inhibitor, single point].
For CSc1nn(Cc2cccc(F)c2)c(N(C(C)=O)C(C)=O)c1S(=O)(=O)c1ccccc1, the Potency was inconclusive: 23.1 µM [inhibitor, single point].
For CN(C)c1ccc(C(CNC(=O)Cc2cccc3ccccc23)N(C)C)cc1 (stereo not drawn), the Potency was inconclusive: 23.1 µM [inhibitor, single point].
In the case of Nc1nc(NCCCN2CCOCC2)nc(Nc2ccccc2)c1[N+](=O)[O-], the Potency is reported as inconclusive: 29.1 µM [inhibitor, single point].
For CCOCCCNC(c1ccccc1)c1ccncc1 (stereo not drawn), the “activity change, negative = growth inhibition” value was inactive: -8.69%.
For CSc1nc2nc3c(cc2c(=O)n1-c1ccccc1)COC(C)(C)C3, the Potency was inconclusive: 14.6 µM [inhibitor, single point].
In the case of CCOc1cccc(C(=O)Nc2cccc(C(=O)NC(C)(C)C)c2)c1, the Potency is reported as inconclusive: 29.1 µM [inhibitor, single point].
In the case of CCn1cc(C(=O)NCC2CCCO2)c(=O)c2cc(S(=O)(=O)N(C)C3CCCCC3)ccc21 (stereo not drawn), the “activity change, negative = growth inhibition” value is reported as inactive: -13.3%.
For CCCCCOc1ccc(/C=N/NC(=O)c2nnn(-c3nonc3N)c2CN2CCCCCC2)cc1, the “activity change, negative = growth inhibition” value was inactive: -15.9%.
In the case of COc1ccc(N2C(=O)CNC2=S)cc1, the “activity change, negative = growth inhibition” value is reported as inactive: 0.715%.
With C/C=C1\COC(C(=O)NCc2ccncc2)(C(F)(F)F)C=C1C=C1CCCCC1 (stereo not drawn) the Potency was inconclusive: 29.1 µM [inhibitor, single point].
In the case of COc1cc(C2Nc3ccccc3C(=O)N2Cc2ccccc2)ccc1OCc1ccccc1 (stereo not drawn), the Potency is reported as inconclusive: 25.1 µM [inhibitor, single point].
For Cc1cccc(OCCOC(=O)C2CCN(S(=O)(=O)c3cccs3)CC2)c1, the “activity change, negative = growth inhibition” value was inactive: -3.78%.
In the case of Cc1nnc(SCc2ccccc2CSc2nnc(C)s2)s1, the Potency is reported as inconclusive: 23.1 µM [inhibitor, single point].
With Cc1cccc(OCC(=O)NC(=S)Nc2ccc(S(=O)(=O)NC3CCCCC3)cc2)c1 the Potency was inconclusive: 16.4 µM [inhibitor, single point].
In the case of CC1(C)C(C=C(Cl)Cl)C1C(=O)N(Cc1ccc(Cl)cc1)C1CCS(=O)(=O)C1 (stereo not drawn), the Potency is reported as inconclusive: 29.1 µM [inhibitor, single point].
In the case of COc1cccc(C(O)c2nc(-c3ccc(Cl)cc3)cs2)c1 (stereo not drawn), the Potency is reported as inconclusive: 25.9 µM [inhibitor, single point].
With O=C(C1CCCC1)N1CCN(S(=O)(=O)c2ccc(Cl)cc2)CC1 the activity change, negative = growth inhibition was inconclusive: -30.8% [inhibitor].
With Cc1cccc(S(=O)(=O)c2cn(Cc3ccccc3)c3cc(N4CCCC(C)C4)c(F)cc3c2=O)c1 (stereo not drawn) the Potency was inconclusive: 23.1 µM [inhibitor, single point].
For CC1=C(C)/C(=N\OS(=O)(=O)c2ccc(C)cc2)C=CC1=O, the Potency was active: 0.651 µM.
